# Experimental data as given in the BET-seq Pho4 binding data (Le et al. 2018).
# The list shows a part of the results. Values were computed here from the reads of four pooled replicates and scatter widely.
# Target: T1, Pho4 (S. cerevisiae) (UniProt P07270)
# T1 sequence: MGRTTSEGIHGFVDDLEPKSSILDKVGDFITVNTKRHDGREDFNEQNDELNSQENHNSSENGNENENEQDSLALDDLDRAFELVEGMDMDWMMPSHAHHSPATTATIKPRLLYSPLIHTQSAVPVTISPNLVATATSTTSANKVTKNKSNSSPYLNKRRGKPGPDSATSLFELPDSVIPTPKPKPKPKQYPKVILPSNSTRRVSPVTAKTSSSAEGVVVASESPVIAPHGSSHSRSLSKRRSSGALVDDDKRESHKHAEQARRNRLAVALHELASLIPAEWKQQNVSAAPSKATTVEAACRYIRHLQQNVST
# Test: relative binding free energy (BET-seq); higher = weaker binding
# Details: reference: library average
row,Sequence,relative binding free energy [kcal/mol]
1,CGGGCCACGTGTGGAT,-0.02
2,GGGGCCACGTGATGAG,0.21
3,GAGGGCACGTGGCGTG,-0.16
4,ATTAGCACGTGACGGG,0.04
5,ATAGTCACGTGTCATT,0.12
6,TTGGGCACGTGCACTT,-0.19
7,TCTATCACGTGATTTG,0.28
8,TGATGCACGTGGTCTT,-0.08
9,GTGGTCACGTGTAAGT,0.22
10,ATGTGCACGTGAATGG,0.23
11,AGAGTCACGTGGGGCC,0.02
12,GGGTACACGTGGTAGC,0.09
13,ATATTCACGTGGAATG,0.13
14,TATTACACGTGACGTT,0.23
15,TGTGGCACGTGGGAAC,-0.06
16,TATTTCACGTGGAAGG,0.48
17,AGCGGCACGTGGATAG,0
18,CGGTACACGTGTTGCG,0.04
19,TAGGGCACGTGCAGGT,-0.25
20,GCGCTCACGTGGGGTT,-0.06
21,TAGGACACGTGGAAGT,0.1
22,GGTGTCACGTGATGTG,0.3
23,ATGGTCACGTGATGGA,0.29

row,Sequence,relative binding free energy [kcal/mol]
1,ATATGCACGTGTAGGT,-0.08
2,TTAGTCACGTGACTTT,0.28
3,TGGTGCACGTGAGTCA,0.11
4,TTGCGCACGTGATGTT,0.09
5,GTCCGCACGTGATGGG,0.09
6,TTGCTCACGTGTGTGT,0.21
7,TTATACACGTGGGGTC,-0.16
8,TCAGACACGTGGTTGT,-0.02
9,AGGGTCACGTGCTTTG,0.07
10,AGTTGCACGTGGAGAT,0.04
11,GTATGCACGTGGGCAA,-0.07
12,TTTGCCACGTGGCGTT,-0.21
13,TCTTACACGTGGGGGA,-0.08
14,TTTTTCACGTGCGTAG,0.21
15,TTTTTCACGTGAGCCT,0.32
16,GGGGACACGTGGGGAG,-0.04
17,GGCGACACGTGGTCGG,-0.07
18,ACGGGCACGTGAGTAT,0.07
19,CGAGACACGTGGTGGG,-0.06
20,TAATTCACGTGGGGGT,0.08
21,TTCTACACGTGCGGGG,0.15
22,GGTCTCACGTGGAGTT,0.37
23,AGGTTCACGTGGCAGT,0.1

row,Sequence,relative binding free energy [kcal/mol]
1,ATTTTCACGTGTGGTC,0.37
2,TGATGCACGTGGAATG,0.03
3,AATAGCACGTGAGGGA,0.07
4,TGGGACACGTGTGGTT,0.07
5,ATGCTCACGTGTGTGG,0.09
6,GGTAGCACGTGTGACA,0.03
7,GTAAGCACGTGTTTTT,0.01
8,TCGTTCACGTGTGGTG,0.34
9,TTCGACACGTGTGATG,0.13
10,AAGGACACGTGGGTGC,-0.13
11,TGTAGCACGTGCATGG,-0.06
12,AAAATCACGTGGGGGA,0.09
13,ATAGACACGTGGGTTG,-0.16
14,GGGGGCACGTGAAGGC,0.09
15,TATTGCACGTGGTCGA,-0.18
16,TACCTCACGTGGGGTG,0.13
17,GGGGTCACGTGTCTGT,0.2
18,GAGTGCACGTGGTAGC,-0.04
19,TAGGACACGTGACGTG,0.24
20,CTGAACACGTGGGGGT,-0.12
21,TAATTCACGTGTGTCG,0.23
22,TAAATCACGTGCGGTT,0.19
23,TTATTCACGTGTCGTA,0.17

row,Sequence,relative binding free energy [kcal/mol]
1,TGTTGCACGTGAAGTA,0.12
2,TTAATCACGTGTGTAA,0.19
3,GTATACACGTGGGAAG,0
4,CTCGTCACGTGGGGGA,-0.08
5,TATGCCACGTGAGGGG,0.08
6,ATTTTCACGTGGTTCG,0.26
7,TTTAGCACGTGCGGGT,-0.09
8,TTCGTCACGTGACGTT,0.25
9,GGGGTCACGTGACATG,0.2
10,ATTGTCACGTGTATTG,0.05
11,TGGCCCACGTGGGTTG,-0.25
12,TAGGTCACGTGTTAGG,-0.01
13,TTACTCACGTGGTATG,0.16
14,AGTTACACGTGGGGAT,0.11
15,AGGGGCACGTGCGAGG,-0.08
16,GGTGCCACGTGGTTAT,-0.13
17,TTAAGCACGTGCAAGT,-0.01
18,AGATGCACGTGAGTTG,0.29
19,CGGCGCACGTGGTATG,-0.29
20,TTCGTCACGTGAAGGC,0.38
21,ATGCACACGTGATTGG,0.21
22,AGCGTCACGTGTATGT,0.07
23,GGATTCACGTGAATGG,0.35

row,Sequence,relative binding free energy [kcal/mol]
1,CGTTACACGTGGTCTG,0.08
2,AGAGGCACGTGGGGAG,-0.24
3,CAGGTCACGTGATGGT,0.28
4,TTAATCACGTGACTTT,0.19
5,TGTGCCACGTGGTACA,-0.04
6,TGGGTCACGTGGTCCT,-0.01
7,GCCTGCACGTGGGTTA,-0.18
8,AGAAGCACGTGATGTG,-0.13
9,AAATACACGTGGTATG,0.06
10,TACGTCACGTGTATTG,-0.06
11,TTGTTCACGTGCAGTT,0.3
12,GTGGGCACGTGCGCGA,-0.14
13,TGGGTCACGTGTGGTT,0.24
14,ACTGGCACGTGATGAT,0.02
15,TTTAGCACGTGATTAG,0.02
16,TAGAGCACGTGTATGC,-0.06
17,CATTTCACGTGTTATG,0.18
18,GGATCCACGTGGTGGC,0.14
19,TATGACACGTGAGGGC,0.19
20,TGGGTCACGTGCTAGA,0.17
21,CCAGTCACGTGGGTTT,0.03
22,TAGTTCACGTGGGTCC,0.28
23,GAACGCACGTGGGGAG,-0.14
